Where “and” joins values, the source holds several entries; their conditions need not be identical. Equal values may be shown once. Inconclusive means that the source gave no clear call. Such entries were picked first, then a sample of the others. For part of these data: Potencies of inconclusive entries are doubtful fits and often do not repeat. Calls of active or inactive are those of the source. Unless noted, calls follow the shape of the dose curve; as a rule, active = well fitted curve in the direction sought with a large enough effect; inconclusive = small, poorly fitted or top-dose-only effect, or another doubt; inactive = no such curve, though single readings can be large; an effect the other way counts as inactive or inconclusive.
What was measured:
[1] = Primary qHTS for inhibitors of nuclear receptor binding SET domain protein 2 (NSD2) in an RCH-ACV wild type WT cells (2C) (AID 1645877); details: activity change, negative = cell killing: at 44.9 µM (top of the series) unless noted; also: nearly all actives have a fitted effect of over 70% in size; also: potency is read from the fitted curve at half-maximal effect; as to activity change, negative = cell killing: % is scaled to controls: 0 for no effect and ±100 for the full control effect
[2] = Primary fluorescence-based thiol-reactive (MSTI) qHTS assay for identification of artifact compounds. (AID 1845221);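 also: potency is read from the fitted curve at half-maximal effect; thiol-reactive compounds lower the probe fluorescence signal; nearly all actives have a fitted effect of over 65% in size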
In short: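 First, 4 uM MSTI in 2% DMSO/PBS pH 7.4 was dispensed; next, compounds were added; then plates sat 1 h at room temperature without light. Finally, emission at 598 nm was recorded.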

[3] = tested on: HEK293; assay: Cytotoxic Profiling of Annotated Libraries Using Quantitative High-Throughput Screening (AID 1296008); details: Five cell lines viability, CellTiter-Glo ATP luminescence, 48-72 h; max response: hits give low values; also: nearly all actives have a fitted effect of over 60% in size; also: potency is read from the fitted curve at half-maximal effect
In short: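 Compounds were pin-transferred onto cells and incubated 48 or 72 hr at 37 degree Celsius, 95% humidity. CellTiter-Glo was added, plates sat 10 min at room temperature, then ATP-coupled luminescence was imaged as the viability read-out.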

[4] = tested on: CASKI; assay: Primary qHTS to identify gynecologic anti-cancer compounds using libraries of approved drugs and bioactive compounds (AID 1345084); details: Gynecologic cancer cell panel viability, ATPlite luminescence, 48 h; series mostly up to 57.5 µM; also: nearly all actives have a fitted effect of over 55% in size; also: potency is read from the fitted curve at half-maximal effect; as to activity change, negative = cytotoxicity: % is scaled to controls: 0 for no effect and ±100 for the full control effect
In short: (§1)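 48 h compound exposure at 37 C, 5% CO2; five-point qHTS. ATPlite luminescence readout of cell ATP.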

[5] = tested on: OV90; assay: as above; details: Gynecologic cancer cell panel viability, ATPlite luminescence, 48 h; series mostly up to 57.5 µM
In short: as §1

[6] = tested on: SKOV3; assay: as above; details: Gynecologic cancer cell panel viability, ATPlite luminescence, 48 h; series mostly up to 57.5 µM
In short: as §1

[7] = tested on: Zika virus NS2B-NS3 protease (unlinked complex); assay: Primary screen GU Rhodamine qHTS for Zika virus inhibitors: Unlinked NS2B-NS3 protease assay (AID 1347159); also: nearly all actives have a fitted effect of over 60% in size; also: potency is read from the fitted curve at half-maximal effect
In short: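 Percent inhibition derives from the 15-min fluorescence change (ex 480, em 540 nm), normalized to no-enzyme and no-inhibitor wells. Reactions contained 25 nM NS2B-NS3 complex and 1.5 microM substrate in 10 mM Tris-HCl pH 8.0.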

[8] = tested on: Es-2; assay: Primary qHTS to identify gynecologic anti-cancer compounds using libraries of approved drugs and bioactive compounds (AID 1345084); details: Gynecologic cancer cell panel viability, ATPlite luminescence, 48 h; series mostly up to 57.5 µM; also: nearly all actives have a fitted effect of over 55% in size; also: potency is read from the fitted curve at half-maximal effect; as to activity change, negative = cytotoxicity: % is scaled to controls: 0 for no effect and ±100 for the full control effect
In short: as §1

[9] = P-glycoprotein substrates identified in KB-8-5-11 adenocarcinoma cell line, qHTS therapeutic library screen (AID 1346987); also: nearly all actives have a fitted effect of over 65% in size; also: potency is read from the fitted curve at half-maximal effect
In short: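 KB-8-5-11: colchicine-selected sub-line of KB-3-1 over-expressing P-gp; assay medium lacked colchicine. 72 h drug exposure at 37 degree C, CellTiter-Glo.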

[10] = tested on: HeLa; assay: Primary qHTS to identify gynecologic anti-cancer compounds using libraries of approved drugs and bioactive compounds (AID 1345084); details: Gynecologic cancer cell panel viability, ATPlite luminescence, 48 h; activity change, negative = cytotoxicity: at 57.5 µM (top of the series); also: nearly all actives have a fitted effect of over 55% in size; also: potency is read from the fitted curve at half-maximal effect; as to activity change, negative = cytotoxicity: % is scaled to controls: 0 for no effect and ±100 for the full control effect
In short: as §1

[11] = target: Cytochrome P450 3A4 (Homo sapiens) (UniProt P08684); assay: Cytochrome P450 family 3 subfamily A member 4 (CYP3A4) small molecule antagonists: luciferase qHTS assay (AID 1645841; active = well fitted curve in the direction sought with a large enough effect in the repeat runs; inconclusive = weak or mixed curves; inactive = no such curve, though single readings can be large; an effect the other way counts as inactive or inconclusive; also: potency is read from the fitted curve at half-maximal effect; nearly all actives have a fitted effect of over 45% in size)
UniProt P08684, sequence (P08684 whole entry, looked up): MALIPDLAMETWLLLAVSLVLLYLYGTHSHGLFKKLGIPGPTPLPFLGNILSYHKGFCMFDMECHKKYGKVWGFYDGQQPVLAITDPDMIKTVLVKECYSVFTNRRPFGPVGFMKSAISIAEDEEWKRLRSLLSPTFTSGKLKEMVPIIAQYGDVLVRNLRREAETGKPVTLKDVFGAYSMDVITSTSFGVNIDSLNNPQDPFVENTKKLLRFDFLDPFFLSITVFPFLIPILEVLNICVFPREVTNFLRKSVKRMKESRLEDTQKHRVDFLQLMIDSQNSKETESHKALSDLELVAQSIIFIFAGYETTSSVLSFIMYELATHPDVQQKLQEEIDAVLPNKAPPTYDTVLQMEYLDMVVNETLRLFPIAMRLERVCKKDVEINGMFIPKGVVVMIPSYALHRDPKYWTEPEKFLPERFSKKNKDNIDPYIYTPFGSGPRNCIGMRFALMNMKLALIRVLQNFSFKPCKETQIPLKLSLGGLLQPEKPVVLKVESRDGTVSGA
In short: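 P450-Glo CYP3A4 enzyme with proluciferin substrate was preincubated with DMSO-dissolved compounds for 10 min at room temperature. NADPH regeneration solution started a 1 h reaction. Detection reagent stopped it, and luminescence was read after 20 min.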

[12] = Primary qHTS for inhibitors of nuclear receptor binding SET domain protein 2 (NSD2) in an isogenic RCH-ACV NSD2 p.E1099K mutant (9B) (AID 1645876); also: potency is read from the fitted curve at half-maximal effect; nearly all actives have a fitted effect of over 70% in size
[13] = tested on: Tov112D; assay: Primary qHTS to identify gynecologic anti-cancer compounds using libraries of approved drugs and bioactive compounds (AID 1345084); details: Gynecologic cancer cell panel viability, ATPlite luminescence, 48 h; series mostly up to 57.5 µM; also: nearly all actives have a fitted effect of over 55% in size; also: potency is read from the fitted curve at half-maximal effect
In short: as §1

[14] = qHTS to identify inhibitors of the type 1 interferon - major histocompatibility complex class I in skeletal muscle: primary screen against the NCATS Mechanism Interrogation Plate v5.0 (MIPE) Libary (AID 1347411); details: iHSKM cells + IFN-b, HiBiT-tagged MHC-I luminescence, 24 h; activity change, negative = inhibition: at 45.8 µM (top of the series);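 also: plate controls were vehicle for no effect and reference inhibitor for full effect; nearly all actives have a fitted effect of over 65% in size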
In short: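 Immortalized human C25cl48 myoblasts with HiBit knocked into endogenous HLA-B*08:01 were stimulated with 4.0 ng/ml IFN-beta and exposed to compounds (11-point 1:3 titration, top 46 uM final) for 24 hrs at 37 C; HiBiT lytic luminescence measured.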

[15] = tested on: Hek293T; assay: Primary qHTS to identify gynecologic anti-cancer compounds using libraries of approved drugs and bioactive compounds (AID 1345084); details: Gynecologic cancer cell panel viability, ATPlite luminescence, 48 h, control line for the selectivity index; activity change, negative = cytotoxicity: at 57.5 µM (top of the series) unless noted; also: nearly all actives have a fitted effect of over 55% in size; also: potency is read from the fitted curve at half-maximal effect
In short: as §1

[16] = tested on: JEG-3; assay: as above; details: Gynecologic cancer cell panel viability, ATPlite luminescence, 48 h; series mostly up to 57.5 µM
In short: as §1

[17] = tested on: PA-1; assay: as above; details: Gynecologic cancer cell panel viability, ATPlite luminescence, 48 h; series mostly up to 57.5 µM
In short: as §1

[18] = tested on: Tov-21-G; assay: as above; details: Gynecologic cancer cell panel viability, ATPlite luminescence, 48 h; activity change, negative = cytotoxicity: at 57.5 µM (top of the series) unless noted
In short: as §1
Tags tell the direction and shape of the fitted curve.

C=C[C@H]1[C@H](O[C@@H]2O[C@H](CO)[C@@H](O)[C@H](O)[C@H]2O)OC=C2C(=O)N3Cc4c([nH]c5ccccc5c4=O)[C@@H]3C[C@H]21
inactive: Potency [1] | outcome [3] | Potency [4] | Potency [5]
inconclusive: Potency [2] 4.12 µM [inhibitor, full curve, poor fit] | Potency [6] 17.8 µM [rising, single point]

CC1=C(CC/C(C)=C/C(=O)O)[C@@]2(C)CCCC(C)(C)C2CC1=O (some centres undefined)
inactive: max response [3] -5.92% | Potency [4] | Potency [8] | Potency [5]
inconclusive: Potency [7] 8.91 µM [inhibitor, full curve]

COc1c(C)c(OCC=C(C)C)cc2c1C(=O)NC2=O
inactive: Potency [9] | outcome [3] | Potency [4] | Potency [10] | Potency [6]

CCn1c2ccccc2c2cc(CNC)ccc21
inactive: Potency [13]
inconclusive: Potency [9] 23.1 µM [inhibitor, single point] | Potency [7] 70.8 µM [inhibitor, single point] | Potency [11] 21.3 µM [falling, partial curve] | Potency [12] 20.5 µM [inhibitor, single point] | Potency [1] 23 µM [inhibitor, single point] | Potency [3] 29.1 µM [inhibitor, single point] | Potency [4] 39.8 µM [cytotoxic, single point] | Potency [5] 25.1 µM [cytotoxic, single point] and 39.8 µM [cytotoxic, single point]

OC[C@H]1O[C@@H](Oc2cc(O)cc(/C=C/c3ccc(O)cc3)c2)[C@H](O)[C@@H](O)[C@@H]1O
inactive: Potency [7] | Potency [14] | outcome [3]
inconclusive: Potency [12] 16.6 µM [inhibitor, partial curve] | Potency [1] 20.9 µM [inhibitor, partial curve] | Potency [2] 9.47 µM [inhibitor, partial curve] | Potency [8] 22.4 µM [cytotoxic, partial curve] | Potency [10] 17.8 µM [cytotoxic, partial curve, poor fit] | Potency [15] 39.8 µM [cytotoxic, single point] | Potency [16] 20 µM [cytotoxic, partial curve] | Potency [17] 31.6 µM [cytotoxic, single point] | Potency [6] 25.1 µM [cytotoxic, single point] | Potency [18] 17.8 µM [cytotoxic, partial curve] | Potency [13] 25.1 µM [cytotoxic, single point]
